Structures are written as SMILES. Over roughly 110,000 compounds, “z-score” has its median near -0.1; the highest 2% begin near 2. This is one part of the list. Activity calls are given as the source filed them.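 How the source made its calls: active means z-score in the third read window above 3 or below -3; inactive means the rest.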

The target of this test is Metabotropic glutamate receptor 8 (Rattus norvegicus) (UniProt P70579). The test is described as follows: rat mGluR8 modulators via GIRK flux, primary screen, cell-based, thallium flux, HTS (AID 488969). The following applies: HEK293 rat mGluR8, GIRK (G protein-gated inwardly rectifying potassium channel) thallium flux, FluoZin2; at 10 µM; stronger effect = higher value; submaximal glutamate (EC20) added with thallium.
Chain of UniProt P70579 (P70579 whole entry, looked up): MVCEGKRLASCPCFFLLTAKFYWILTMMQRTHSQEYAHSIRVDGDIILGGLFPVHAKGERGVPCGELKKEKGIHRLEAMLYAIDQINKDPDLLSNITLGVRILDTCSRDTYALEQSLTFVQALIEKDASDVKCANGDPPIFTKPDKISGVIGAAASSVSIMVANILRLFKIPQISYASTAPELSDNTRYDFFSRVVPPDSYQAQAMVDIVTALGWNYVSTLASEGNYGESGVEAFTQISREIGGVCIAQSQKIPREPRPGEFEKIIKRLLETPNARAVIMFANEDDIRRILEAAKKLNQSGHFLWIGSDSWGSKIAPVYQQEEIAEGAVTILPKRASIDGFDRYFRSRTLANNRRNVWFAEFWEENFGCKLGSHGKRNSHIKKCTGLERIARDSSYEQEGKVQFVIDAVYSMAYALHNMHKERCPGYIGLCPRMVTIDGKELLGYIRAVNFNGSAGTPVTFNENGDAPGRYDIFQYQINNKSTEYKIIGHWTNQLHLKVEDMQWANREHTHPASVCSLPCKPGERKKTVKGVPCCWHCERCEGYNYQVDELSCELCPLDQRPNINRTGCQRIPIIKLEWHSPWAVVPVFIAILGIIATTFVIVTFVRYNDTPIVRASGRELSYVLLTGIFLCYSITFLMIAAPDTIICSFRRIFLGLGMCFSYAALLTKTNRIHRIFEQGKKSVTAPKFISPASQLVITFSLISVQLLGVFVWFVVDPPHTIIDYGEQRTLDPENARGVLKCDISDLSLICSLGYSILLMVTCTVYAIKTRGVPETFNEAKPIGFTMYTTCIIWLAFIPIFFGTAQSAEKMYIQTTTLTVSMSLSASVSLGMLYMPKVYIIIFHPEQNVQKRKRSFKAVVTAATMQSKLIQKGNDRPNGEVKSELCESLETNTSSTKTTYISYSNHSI
`COc1ccc(NC(=O)c2c(OC)cccc2OC)c(OC)c1` registered a z-score of -0.249.
The figure for `CCN(CC)C(=O)c1ccc(NS(=O)(=O)c2ccccc2)cc1` is 0.525; for `CCCN1C(=O)c2ccc(C(=O)Nc3cc(C)on3)cc2C1=O` it is -0.103.
As for `Cc1cccc(Nc2ccc([N+](=O)[O-])cc2C(=O)O)c1`, the z-score was -0.32.
Regarding `CCOC(=O)CC(NC(=O)c1cc2cccc(OC)c2oc1=O)c1cccc([N+](=O)[O-])c1` (centres undefined), the z-score is -0.293.
For `COc1ccccc1NC(=S)N(CCc1nc2cc(C)c(C)cc2[nH]1)Cc1cccnc1` the value was 0.23; for `CC(C)Nc1nnc(Sc2ccc(Cl)cc2[N+](=O)[O-])s1`, 1.29; for `CCNc1ccc(S(=O)(=O)N(C)C)cc1NCC(=O)Nc1ccc(F)c(Cl)c1`, 0.204.
Consider `O=C(COC(=O)/C=C/c1ccc2c(c1)OCO2)Nc1ccc(S(=O)(=O)N2CCCC2)cc1`, for which the z-score was -0.182.
The figure for `CSc1nc(C)cc(/C=C\c2ccccc2)c1C#N` is -0.0716; for `CCOC(=O)c1nn(-c2ccc(F)cc2)c(-c2ccccc2)c1C(=O)c1ccccc1` it is -0.126.
The figure for `CC(C)c1nnc(NC(=O)CCC(=O)NCc2ccc3c(c2)OCO3)s1` is 0.746; for `Cc1ccccc1NC(=O)NCCCN1CCN(c2ccccc2)CC1` it is -0.104; for `C/C(CC(C)C)=N\NC(=O)Nc1ccccc1` it is 1.35.
The figure for `C1CCC2(CC1)OCC1(CO2)COC2(CCCCC2)OC1` is active: 3.83.
The compound `CC(C)CCNC(=O)C12CN(Cc3ccccc3)CC1C(c1cccc([N+](=O)[O-])c1)=NO2` (centres undefined) returned a z-score of -0.257.
The figure for `CC(=O)Oc1ccc2c(c1)OC(c1ccccc1)CC21CC(C)(C)NC(=S)N1` (centres undefined) is -0.31; for `COc1cccc(NC(=O)C(Sc2nc3ccccc3c(=O)n2CC(C)C)c2ccccc2)c1` (centres undefined) it is 2.63; for `CC(C)NS(=O)(=O)c1ccc(OCC(=O)Nc2ccc3c(c2)OCO3)c(Cl)c1` it is active: 3.09.
The compound `Cc1nc(CS(=O)(=O)c2ccccc2)cc(Sc2ccc(Cl)cc2Cl)n1` registered a z-score of -0.44.
The compound `O=C(Nc1nc(-c2ccc(Cl)s2)cs1)c1ccncc1` came in with a z-score of 0.0724.
The figure for `CCOC(=O)C1Sc2[nH]c(=O)sc2C(c2ccc(Cl)cc2)C1C(=O)OCC` (centres undefined) is -0.162.
For `CSCCC(NS(=O)(=O)c1ccc(Cl)cc1)C(=O)OCC(=O)N1CCOCC1` (centres undefined) the value was 0.146; for `O=C(NC(=S)Nc1cccc(Cl)c1N1CCCCC1)c1ccc2c(c1)OCCO2`, 0.413.
In turn, `CCCCCc1nnc(NC(=O)Cn2cnc3ccccc3c2=O)s1` came in with a z-score of -0.129.
For `CCCCCOC(=O)C1=C(C)Nc2ncnn2C1c1cccs1` (centres undefined) the value was -1.21; for `Cc1ccc(S(=O)(=O)c2cc3cc(Br)ccc3oc2=O)cc1`, 0.115.
For `O=C(O)CSc1nnc(Cn2cnc3ccccc32)n1CCc1ccccc1` the value was 0.335.
`Cc1ccc2nc(NC(=O)c3ccc(S(=O)(=O)N4CCCc5ccccc54)cc3)sc2c1` gave a z-score of -0.487.
`CCOC(=O)CCc1c(C)nc2ncnn2c1C` returned a z-score of 0.0118.
For `CC(=O)OCn1nnc2ccccc2c1=O` the value was -0.386; for `c1cnc(Nc2nc(-c3ccc4ccccc4c3)cs2)nc1`, -0.78.
For `CC(CCc1ccccc1)NC(=O)C(=O)Nc1ccccc1` (centres undefined) the value was -0.109.
The figure for `CC(=O)c1ccc(OCC(O)CN2CC(C)OC(C)C2)cc1` (centres undefined) is -0.391.
`COCC(C)NCc1cccc(OC)c1OC` (centres undefined) returned a z-score of 0.763.
Compound `O=C1CN(C(=O)COC(=O)CCC(=O)c2ccc3c(c2)OCCO3)c2ccccc2N1` yielded a z-score of -0.323.
The figure for `CCOC(=O)C(NC(=O)c1ccccc1)=C1C=C(C)OC(C)=C1` is -0.135.
As to `O=C(CCCSc1nc2ccccc2s1)NC1=NCCS1`, the z-score was -0.337.
Take `CC(C)C(=O)NCCc1nc2ccccc2n1C`: the z-score was found to be 0.0935.
The figure for `O=C(O)c1cccc(CSc2nnc(-c3ccco3)o2)c1` is -0.112; for `Cc1cc(C)nc(/N=C(\N)Nc2cc([N+](=O)[O-])ccc2C)n1` it is -0.704; for `O=C(NCc1ccco1)C(c1ccccc1)N(C(=O)Cc1cccs1)c1ccccc1F` (centres undefined) it is -0.964.
For `COc1cccc(-n2c(SCC(=O)N3CCCC3)nc3c([nH]c4ccccc43)c2=O)c1` the value was -0.189.
`COc1cccc(/C=N/NC(=O)CCc2ccccc2)c1` displayed a z-score of -0.247.
The figure for `CCC(C)C(NC(=O)C1CCC(C)CC1)C(=O)NCc1cccnc1` (centres undefined) is 0.171; for `CCN1CCN(CCCNC(=O)C2c3ccccc3C(=O)N(C)C2c2ccc(OC)cc2)CC1` (centres undefined) it is -0.204.
The figure for `CC(=O)Nc1ccc(-c2cc(-c3ccc(NC(C)=O)cc3)nc(-c3ccccc3)n2)cc1` is -0.104; for `Cn1c(=O)c2c(n(C)c1=O)=NC1(CCCCC1)N=2` it is 0.287; for `Cn1c(/C=N/c2nc3ccccc3[nH]2)nc2ccccc21` it is -0.377.
The figure for `O=C(Cc1ccccc1)NN1C(=O)C2C3C=CC(C3)C2C1=O` (centres undefined) is -0.0994.
With `COC(=O)c1cn(NC(=O)c2cccnc2)c(=O)c2ccccc12`, the z-score is 0.426.
The figure for `Cc1ccc(-c2csc(NC(=O)C3=COCCO3)n2)cc1` is -0.193; for `Cc1ccc(C2c3c(oc4ccc(Cl)cc4c3=O)C(=O)N2CCCN2CCOCC2)o1` (centres undefined) it is active: 3.95; for `CCOC(=O)C1=C(c2ccccc2)NC(SCC(=O)NC2CCCCC2)=C(C#N)C1c1ccco1` (centres undefined) it is -0.181.
The figure for `Cn1c(=O)c2c(nc(CN3CCOCC3)n2Cc2ccccc2)n(C)c1=O` is 0.252.
`COc1ccc(NC(=O)c2ccc(CNc3c(NC4CCCCC4)c(=O)c3=O)cc2)cc1OC` displayed a z-score of -0.0252.
For `CNC(=O)COc1ccc(C=O)cc1OC` the value was -0.17; for `Cc1cc(NCCCn2ccnc2)n2nc(-c3ccc(F)cc3)cc2n1`, -0.0109; for `C=CCNC(=S)NNC(=O)c1csc(CC)c1`, -0.158.
`O=[n+]1cc(-c2ccc(Br)cc2)n([O-])c2c1CCC2`: the z-score was -0.244.
For `COCCN(C(=O)COc1ccc(Cl)cc1)c1nnc(-c2cccnc2)s1` the value was -0.163; for `NS(=O)(=O)c1ccc(CCNC(=O)C2CCN(S(=O)(=O)c3cnc[nH]3)CC2)cc1`, -0.00955.
For the compound `CC(=O)c1ccc(NC(=O)CCCN2C(=O)/C(=C/C(C)=C/c3ccccc3)SC2=S)cc1`, the z-score was -1.43.
`NS(=O)(=O)c1ccc(NC(=O)CSc2nnc(-c3cnccn3)n2-c2ccccc2)cc1` had a z-score of -0.0471.
`Cc1[nH]nc2c1C(c1ccccc1F)NC2=O` (centres undefined) registered a z-score of 2.74.
The figure for `Cc1ccc(NC2OC(CO)C(O)C(O)C2O)cc1` (centres undefined) is -0.358; for `CC(=O)Nc1ccc(S(=O)(=O)Nc2nccc(C3Cc4ccccc4C(=O)O3)n2)cc1` (centres undefined) it is -0.618.
The figure for `CCOC(=O)/C(=N\Nc1ccccc1Cl)N1CCN(C)CC1` is -0.243; for `COC(=O)CNC(=O)c1c(C)cc(=O)oc1C` it is -0.289; for `O=C(Nc1ccc(Br)cc1)C1CC=CCC1C(=O)OCC1CCCO1` (centres undefined) it is 0.616.
Regarding `CCCCOc1ccc(CN(C)c2ncnc(N)n2)cc1`, the z-score is -0.455.
The figure for `Cc1ccc(C(=O)Nc2nc(=O)n(C(=O)c3ccccc3Cl)s2)cc1` is -2.59.
The figure for `Fc1cc(F)c2nc(Nc3nc4cc5c(cc4s3)OCO5)sc2c1` is 1.9.
The figure for `S=C(NCCCN1CCOCC1)Nc1ccc(Cl)cc1Cl` is -0.284.
In the case of `COc1cccc(-c2cc(C(F)(F)F)n3ncc(C(=O)O)c3n2)c1`, the z-score was found to be 0.569.
The figure for `Cc1ccc(NC(=O)CSC2=C(C#N)C(c3ccc4c(c3)OCO4)C3=C(CCCC3=O)N2)c(C)c1` (centres undefined) is -0.933; for `CC(C)CNC(=O)COC(=O)c1cncc(Br)c1` it is -0.113; for `Cc1ccc(SCCC(=O)N2CCOCC2)cc1` it is -0.213.
`CCc1cc2c3c(c1)C1(C(=O)N3C(C)(C)CC2C)C(C#N)=C(N)N2C(=C1C#N)Nc1ccccc12` (centres undefined) returned a z-score of 0.187.
For `Cc1c(C)n(Cc2ccccc2)c2ncnc(N)c12` the value was -0.183.
For `CCn1c2ccccc2c2cc(/C(C)=N/O)ccc21` the value was -0.188; for `Cc1cccc(NC(=S)NCC23C=CC(O2)C2C(=O)N(c4ccc(Cl)cc4)C(=O)C23)c1` (centres undefined), -0.343; for `CCCCCC(=O)Nc1ccc(S(=O)(=O)Nc2nccnc2OC)cc1`, 0.0573.
The compound `CC(C)NC(=O)COc1ncnc2sccc12` displayed a z-score of 0.0373.
The figure for `COC(=O)C1=C(C)C(c2ccc(OC)cc2)NC(=S)N1` (centres undefined) is 0.41; for `COc1ccccc1C(=O)N(CN1CCCC1=O)c1cccc(Cl)c1` it is 0.118; for `O=C(Oc1c(Cl)cc(Cl)c2cccnc12)c1cccc([N+](=O)[O-])c1` it is active: 9.18.
The figure for `Cc1ccc(C(=O)NC(=S)Nc2ccc(S(=O)(=O)N3CCN(C)CC3)cc2)cc1` is 1.43; for `Cc1cccc(OCc2nc(-c3ccc(-n4cccc4)cc3)no2)c1` it is -0.304; for `CCCOc1ccc(C(C(=O)OCCN(CC)CC)c2ccccc2)cc1` (centres undefined) it is 2.43.
`Fc1ccc2c(c1)C(c1ccncc1)=NNC(c1cccnc1)=N2` showed a z-score of -0.00568.
In turn, `Cc1cnc(NC(=O)CN2CCN(c3ccccc3F)CC2)s1` displayed a z-score of 0.0085.
The figure for `COc1ccc(NC(=O)CSc2nnc(CCC(=O)Nc3ccc(C)c(Cl)c3)n2C)cc1` is -0.167; for `COCCNC(=O)c1cc(-c2cccnc2)nc2ccc(Br)cc12` it is -0.266; for `Cc1c(C(=O)Nc2ccccc2C(=O)N2CCOCC2)cccc1[N+](=O)[O-]` it is -0.235.
Take `Cc1ccc(OCC(=O)NNC(=O)CCc2ccccc2)cc1`: the z-score was -0.0742.
For `COc1ccc(C(C(=O)NC2CCCCC2)N(C(=O)c2sc(C)nc2C)c2ccccc2C)cc1` (centres undefined) the value was -0.217; for `CCOC(=O)CSc1nnc(CNC(=O)c2cccs2)n1CCc1ccccc1`, -1; for `Cc1cc(C)n(-c2cc(N3CCN(C(=O)c4ccccc4C)CC3)ccc2[N+](=O)[O-])n1`, -1.2.
The figure for `Cc1noc(C)c1CSc1nnc2scc(-c3ccc(Cl)cc3)n12` is -0.707; for `CN1CCN(c2ccccc2NC(=O)Cc2ccc(Cl)cc2)CC1` it is 0.652.
The figure for `N#CC1(Cc2ccccc2Cl)c2ccccc2C=CN1C(=O)c1ccccc1` (centres undefined) is 0.0771.
`O=C(c1ccccc1)c1c[nH]c2cc3c(cc2c1=O)OCCO3` had a z-score of 0.171.
The figure for `Cc1cc(NC2CCCCC2)nc(-c2ccccc2O)n1` is -0.184; for `CC1CCC2(CC1)C(Nc1cccc(Cl)c1)=NC(=S)N2CC#N` (centres undefined) it is 2.23.
For `COc1ccc2nc(NC(=O)CSc3ccccc3)sc2c1` the value was 0.0453; for `O=C(CN1C(=O)S/C(=C/c2cc(Br)cs2)C1=O)N1CCOCC1`, 0.159.
The compound `COc1ccc(NC(=O)NC2CC3CCCC(C2)N3Cc2ccccc2)cc1` (centres undefined) displayed a z-score of -0.409.
For `COc1ccc2cc(Br)ccc2c1CC(=O)NC1CC(C)(C)NC(C)(C)C1` the value was active: 3.91.

The record behind these values is PubChem BioAssay AID488969 (Vanderbilt High Throughput Screening Facility, 2010).
